# Assay results published in the supplement of paper PMC8728848.
# The other results are listed elsewhere or left out.
# B1: F17aG (Escherichia coli), Q99003 (protein)
# chain: MTNFYKVFLAVFILVCCNISQAAVSFIGSTENDVGPSLGSYSRTHAMDNLPFVYDTRNKIGYQNANVWHISKGFCVGLDGKVDLPVVGSLDGQSIYGLTEEVGLLIWMGDTKYSRGTAMSGNSWENVFSGWCVGANTASTQGLSVRVTPVILKRNSSARYSVQKTSIGSIRMRPYNGSSAGSVQTTVNFSLNPFTLNDTVTSCRLLTPSAVNVSLAAISAGQLPSSGDEVVAGTTSLKLQCDAGVTVWATLTDATTPSNRSDILTLTGASTATGVGLRIYKNTDSTPLKFGPDSPVKGNENQWQLSTGTETSPSVRLYVKYVNTGEGINPGTVNGISTFTFSYQ
# Assays:
# Assay in all cases: glycan array binding signal (z-score within array); higher = stronger binding
# Details in all cases: glycan notation: IUPAC condensed, linker removed
# [1] = biological target: Fuc(a1-2)[GalNAc(a1-3)]Gal(b1-4)GlcNAc(b1-3)GalNAc
# How it was run: (§1)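 The binding signal is a Z-score computed within each array. Data were drawn from 3228 arrays in the Consortium for Functional Glycomics database, restricted to those with a known protein sequence. Scores were averaged over arrays of the same protein sequence at different concentrations or buffers, and over linkers, and negative values can be taken as non-binding.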
# [2] = biological target: Fuc(a1-2)[GalNAc(a1-3)]Gal(b1-4)[Fuc(a1-3)]GlcNAc
# How it was run: as §1
# [3] = biological target: Fuc(a1-2)[GalNAc(a1-3)]Gal(b1-4)[Fuc(a1-3)]GlcNAc(b1-3)GalNAc
# How it was run: as §1
# [4] = biological target: Fuc(a1-2)[GalNAc(a1-4)]Gal(b1-4)GlcNAc
# How it was run: as §1
# [5] = biological target: Fuc(a1-2)[GalNAc(b1-3)]Gal
# How it was run: as §1
# Fuc(a1-3)GlcNAc = biological target: Fuc(a1-3)GlcNAc
# How it was run: as §1
# [6] = biological target: Fuc(a1-3)[Gal(b1-4)]Glc6S
# How it was run: as §1
# [7] = biological target: Fuc(a1-3)[Gal(b1-4)]GlcNAc
# How it was run: as §1
# [8] = biological target: Fuc(a1-3)[Gal(b1-4)]GlcNAc(b1-2)Man(a1-3)[Fuc(a1-3)[Gal(b1-4)]GlcNAc(b1-2)Man(a1-6)]Man(b1-4)GlcNAc(b1-4)GlcNAc
# How it was run: as §1
# [9] = biological target: Fuc(a1-3)[Gal(b1-4)]GlcNAc(b1-2)Man(a1-3)[Fuc(a1-3)[Gal(b1-4)]GlcNAc(b1-2)Man(a1-6)]Man(b1-4)GlcNAc(b1-4)[Fuc(a1-6)]GlcNAc
# How it was run: as §1
# [10] = biological target: Fuc(a1-3)[Gal(b1-4)]GlcNAc(b1-3)Gal(b1-3)[Fuc(a1-4)]GlcNAc
# How it was run: as §1
# [11] = biological target: Fuc(a1-3)[Gal(b1-4)]GlcNAc(b1-3)GalNAc
# How it was run: as §1
# [12] = biological target: Fuc(a1-3)[Gal(b1-4)]GlcNAc(b1-4)Gal(b1-4)[Fuc(a1-3)]GlcNAc
# How it was run: as §1
# [13] = biological target: Fuc(a1-3)[Gal(b1-4)]GlcNAc(b1-4)Gal(b1-4)[Fuc(a1-3)]GlcNAc(b1-4)Gal(b1-4)[Fuc(a1-3)]GlcNAc
# How it was run: as §1
# [14] = biological target: Fuc(a1-3)[Gal(b1-4)]GlcNAc(b1-6)GalNAc
# How it was run: as §1
# [15] = biological target: Fuc(a1-3)[Gal(b1-4)]GlcNAc(b1-6)[Gal(b1-3)GlcNAc(b1-3)]Gal(b1-4)Glc
# How it was run: as §1
# [16] = biological target: Fuc(a1-3)[Gal(b1-4)]GlcNAc(b1-6)[Neu5Ac(a2-3)Gal(b1-3)]GalNAc
# How it was run: as §1
# [17] = biological target: Fuc(a1-3)[Gal(b1-4)]GlcNAc6S
# How it was run: as §1
# [18] = biological target: Fuc(a1-3)[Gal3S(b1-4)]GlcNAc
# How it was run: as §1
# [19] = biological target: Fuc(a1-3)[Gal3S(b1-4)]GlcNAc6S
# How it was run: as §1
# [20] = biological target: Fuc(a1-3)[GalNAc(b1-4)]GlcNAc
# How it was run: as §1
# Fuc(a1-4)GlcNAc = biological target: Fuc(a1-4)GlcNAc
# How it was run: as §1
# Fuc(b1-3)GlcNAc = biological target: Fuc(b1-3)GlcNAc
# How it was run: as §1
# Gal(a1-2)Gal = biological target: Gal(a1-2)Gal
# How it was run: as §1
# Gal(a1-3)Gal = biological target: Gal(a1-3)Gal
# How it was run: as §1
# Gal(a1-3)Gal(b1-3)GlcNAc = biological target: Gal(a1-3)Gal(b1-3)GlcNAc
# How it was run: as §1
# [21] = biological target: Gal(a1-3)Gal(b1-3)GlcNAc(b1-2)Man(a1-3)[Gal(a1-3)Gal(b1-3)GlcNAc(b1-2)Man(a1-6)]Man(b1-4)GlcNAc(b1-4)GlcNAc
# How it was run: as §1
# [22] = biological target: Gal(a1-3)Gal(b1-3)GlcNAc(b1-3)GalNAc
# How it was run: as §1
# [23] = biological target: Gal(a1-3)Gal(b1-3)[Fuc(a1-4)]GlcNAc(b1-2)Man(a1-3)[Gal(a1-3)Gal(b1-3)[Fuc(a1-4)]GlcNAc(b1-2)Man(a1-6)]Man(b1-4)GlcNAc(b1-4)GlcNAc
# How it was run: as §1
# Gal(a1-3)Gal(b1-4)Glc = biological target: Gal(a1-3)Gal(b1-4)Glc
# How it was run: as §1
# Gal(a1-3)Gal(b1-4)GlcNAc = biological target: Gal(a1-3)Gal(b1-4)GlcNAc
# How it was run: as §1
# [24] = biological target: Gal(a1-3)Gal(b1-4)GlcNAc(b1-3)GalNAc
# How it was run: as §1
# [25] = biological target: Gal(a1-3)Gal(b1-4)[Fuc(a1-3)]GlcNAc
# How it was run: as §1
# [26] = biological target: Gal(a1-3)Gal(b1-4)[Fuc(a1-3)]GlcNAc(b1-2)Man(a1-3)[Gal(a1-3)Gal(b1-4)[Fuc(a1-3)]GlcNAc(b1-2)Man(a1-6)]Man(b1-4)GlcNAc(b1-4)GlcNAc
# How it was run: as §1
# Gal(a1-3)GalNAc = biological target: Gal(a1-3)GalNAc
# How it was run: as §1
# [27] = biological target: Gal(a1-3)[Gal(a1-4)]Gal(b1-4)GlcNAc
# How it was run: as §1
# [28] = biological target: Gal(a1-4)Gal(b1-3)GlcNAc(b1-2)Man(a1-3)[Gal(a1-4)Gal(b1-3)GlcNAc(b1-2)Man(a1-6)]Man(b1-4)GlcNAc(b1-4)GlcNAc
# How it was run: as §1
# Gal(a1-4)Gal(b1-4)Glc = biological target: Gal(a1-4)Gal(b1-4)Glc
# How it was run: as §1
binder,measurement,setting,value
B1,glycan array binding signal (z-score),[1],-0.159
same,glycan array binding signal (z-score),[2],-0.188
same,glycan array binding signal (z-score),[3],-0.157
same,glycan array binding signal (z-score),[4],-0.242
same,glycan array binding signal (z-score),[5],-0.247
same,glycan array binding signal (z-score),Fuc(a1-3)GlcNAc,-0.228
same,glycan array binding signal (z-score),[6],-0.146
same,glycan array binding signal (z-score),[7],-0.244
same,glycan array binding signal (z-score),[8],-0.148
same,glycan array binding signal (z-score),[9],-0.16
same,glycan array binding signal (z-score),[10],-0.065
same,glycan array binding signal (z-score),[11],-0.144
same,glycan array binding signal (z-score),[12],-0.138
same,glycan array binding signal (z-score),[13],-0.26
same,glycan array binding signal (z-score),[14],-0.119
same,glycan array binding signal (z-score),[15],-0.15
same,glycan array binding signal (z-score),[16],-0.146
same,glycan array binding signal (z-score),[17],-0.145
same,glycan array binding signal (z-score),[18],-0.219
same,glycan array binding signal (z-score),[19],-0.151
same,glycan array binding signal (z-score),[20],-0.236
same,glycan array binding signal (z-score),Fuc(a1-4)GlcNAc,-0.219
same,glycan array binding signal (z-score),Fuc(b1-3)GlcNAc,-0.253
same,glycan array binding signal (z-score),Gal(a1-2)Gal,-0.221
same,glycan array binding signal (z-score),Gal(a1-3)Gal,-0.259
same,glycan array binding signal (z-score),Gal(a1-3)Gal(b1-3)GlcNAc,0.04
same,glycan array binding signal (z-score),[21],-0.178
same,glycan array binding signal (z-score),[22],-0.143
same,glycan array binding signal (z-score),[23],-0.161
same,glycan array binding signal (z-score),Gal(a1-3)Gal(b1-4)Glc,-0.197
same,glycan array binding signal (z-score),Gal(a1-3)Gal(b1-4)GlcNAc,-0.183
same,glycan array binding signal (z-score),[24],-0.168
same,glycan array binding signal (z-score),[25],-0.252
same,glycan array binding signal (z-score),[26],-0.157
same,glycan array binding signal (z-score),Gal(a1-3)GalNAc,-0.188
same,glycan array binding signal (z-score),[27],-0.234
same,glycan array binding signal (z-score),[28],-0.142
same,glycan array binding signal (z-score),Gal(a1-4)Gal(b1-4)Glc,-0.249
